Measured values from PubChem BioAssay AID1508642 (National Center for Advancing Translational Sciences (NCATS), 2021).
Screen size: about 43,000 compounds; about 200 (0.47%) were called active. Another 12% or so got no clear call; they are omitted. Calls come from the whole dose curve; as a rule, active = well fitted cell-killing curve with a large enough effect; inconclusive = small, poorly fitted or top-dose-only effect, or effect the other way; inactive = flat fitted curve, though single readings scatter. Some of the results follow.

Experiment: Cell viability qHTS assay in S16 Pmp22-F2sN cells; note: nearly all actives have a fitted effect of over 65% in size
Conditions: S16 Pmp22-F2sN Schwann cells (luciferase reporters placed in the Pmp22 gene) viability, CellTiter-Glo, 24 h; series mostly up to 57.5 µM; activity change, negative = cytotoxicity: at the top concentration
Procedure, shortened: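 Luminescence from CellTiter-Glo, read by CCD camera after a 15 min room-temperature incubation, served as the viability signal. Reporter Schwann cells (S16 Pmp22-F2sN) had been treated with pin-transferred compounds for 24 h at 37C.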
% is set by controls: 0 for no effect and ±100 for the full control effect.

| SMILES | activity change, negative = cytotoxicity |
| --- | --- |
| COc1ccc(NC(=O)C2CCN(S(=O)(=O)c3c(C)noc3/C=C/c3cccs3)CC2)cc1 | inactive: 1.6% |
| CC(C)N(Cc1ccccc1)C(=O)Cn1ncc2c3ccccc3n(Cc3ccccc3)c2c1=O | inactive: -23.4% |
| COc1ccc(CCNC(=O)c2cn(C)c3ccc(S(=O)(=O)N4CCOCC4)cc3c2=O)cc1OC | inactive: -12.7% |
| CCOC(=O)c1ccc(NC(=O)CCCn2c(=O)c3cccn3c3cccnc32)cc1 | inactive: 18.9% |
| CN(Cc1ccccc1)C(=O)CCS(=O)(=O)c1ccc2c(c1)oc(=O)n2C | inactive: -33% |
| COC(=O)c1ccccc1NC(=O)c1ccc(-c2nc(CSc3ccc(C)cc3)c(C)o2)cc1 | inactive: -1.26% |
| O=C(CSc1ccccc1)NCc1ccc2c(c1)CCN2C(=O)c1ccccc1 | inactive: -4.32% |
| COc1cccc(-c2noc(CCCC(=O)NCc3ccco3)n2)c1 | inactive: 4.92% |
| Cc1cccc(C)c1OCC(=O)NC(Cc1c[nH]c2ccccc12)C(=O)O (stereo unspecified) | inactive: 13.5% |
| Cc1ccc(S(=O)(=O)NCc2nc3nc(C)cc(C)n3n2)cc1 | inactive: -4.67% |
| Cc1ccc(C)c(CN2CCCN(CC(=O)Nc3ccc(C)c(C)c3)S2(=O)=O)c1 | inactive: 8.44% |
| Cc1ccc(-n2c(=O)c3c4c(sc3n(CC(=O)Nc3cccc(Cl)c3)c2=O)CCCCC4)cc1C | inactive: 17.8% |
| COc1cc(Cl)c(C)cc1NC(=O)CCc1nc2cccnc2n1Cc1cccs1 | inactive: -28.4% |
| CCN(CC)CCCNC(=O)c1ccc(Cn2c(=O)[nH]c3cc(OC)c(OC)cc3c2=O)cc1 | inactive: 2.01% |
| CCOC(=O)c1c(S(=O)(=O)N2CCC(C(=O)N3CCN(c4ccccc4F)CC3)CC2)c(C)n(C)c1C | inactive: -2.33% |
| Cn1cc(C(=O)NCc2ccccc2Cl)c(=O)c2cc(S(=O)(=O)N3CCCCCC3)ccc21 | inactive: 2.7% |
| CN(CC(=O)NCc1ccc(F)cc1)S(=O)(=O)c1ccc2[nH]c3c(c2c1)CCCC3 | inactive: -29.7% |
| COc1ccc(CNc2nc3c(-c4cccc(F)c4)nnn3c3ccccc23)cc1 | inactive: 15.3% |
| Cc1ccc(NC(=O)c2c(C)oc3c2C2=NCCN2C=N3)cc1F | inactive: -4.26% |
| CCc1ccc(-n2c(=O)c3sc4ccccc4c3n(CC(=O)NCc3ccccc3)c2=O)cc1 | inactive: 4.45% |
| Cc1c(Cl)cccc1NC(c1ccc(F)cc1)c1nnc(-c2ccccc2)o1 (stereo unspecified) | inactive: 15.6% |
| O=C(Cn1cccc1C(=O)c1ccccc1)NCc1ccccc1Cl | inactive: 10.3% |
| O=C(Nc1cccnc1)c1cc(-c2ccc(Cl)cc2)on1 | inactive: 2.24% |
| O=C(c1ccc2c(c1)N(Cc1cccc(F)c1)C(=O)c1ccccc1S2)N1CCC2(CC1)OCCO2 | inactive: -0.252% |

| SMILES | activity change, negative = cytotoxicity |
| --- | --- |
| Cc1cccn2c(=O)cc(CSc3nnc(NC(=O)COc4ccccc4)s3)nc12 | inactive: 1.05% |
| COC(=O)c1cc2sccc2n1CC(=O)Nc1ccc(OC)c(OC)c1 | inactive: -3.83% |
| Cc1ccc(NC(=O)Nc2cn(CC(C)C)c(=O)c3ccccc23)cc1N(C)C | inactive: 0.538% |
| COc1ccc(-c2cc(C(C)=O)c(C)n2CCC(=O)NCc2ccc(C)cc2)cc1 | inactive: 1.28% |
| CCOC(=O)c1cc(S(=O)(=O)N2CCN(c3cccc(C)c3C)CC2)[nH]n1 | inactive: -3.97% |
| CNC(=O)c1c(NC(=O)c2nc(SCc3ccc(C)cc3)ncc2Cl)sc2c1CCCC2 | inactive: 1.58% |
| CCN(c1ccccc1C)S(=O)(=O)c1nnc(NC(=O)c2ccco2)s1 | inactive: 9.94% |
| COc1ccccc1OCC(=O)N1CCC(c2nc3ccccc3o2)CC1 | inactive: 3.6% |
| Cc1ccc(-n2ncc(C(=O)NC3CCCCC3)c2C2CCN(C(=O)OC(C)(C)C)CC2)cc1 | inactive: -4.74% |
| Cc1nc2sccn2c(=O)c1S(=O)(=O)Nc1cc(C(F)(F)F)ccc1Cl | inactive: 7.16% |
| Cc1ccc(CCNC(=O)c2ccc3c(c2)nc2n3CCOC2)cc1 | inactive: 18% |
| Cc1ccccc1OCCCCn1nnc2sc3c(c2c1=O)CCC(C)C3 (stereo unspecified) | inactive: 12.1% |
| CCOCCCn1c(SCC(=O)Nc2ccccc2Cl)nc2c(oc3ccccc32)c1=O | inactive: 2.4% |
| COCCNC(=O)c1ccc(-c2nc(CS(=O)(=O)c3ccccc3)c(C)o2)cc1 | inactive: 1.19% |
| CN1C(=O)C2(SCC(=O)N2c2ccc(Cl)cc2)c2ccccc21 (stereo unspecified) | inactive: 2.32% |
| O=C(Nc1ccc(F)c(Cl)c1)N1CCC(CN2CCOCC2)CC1 | inactive: 4.56% |
| CCc1ccc(-n2nc3ccc(NC(=O)COc4ccc(OC)cc4)cc3n2)cc1 | inactive: 8.27% |
| COc1cccc(Cn2c(CNS(=O)(=O)c3ccc(Cl)s3)nc3cccnc32)c1 | inactive: -13.6% |
| CCc1nn2c(=O)c(S(=O)(=O)Nc3ccc(C(C)C)cc3)c(C)nc2s1 | inactive: 6.46% |
| O=C(CSc1nc2c(c(=O)[nH]1)CN(Cc1ccc3c(c1)OCO3)CC2)Nc1ccccc1Cl | inactive: 1.83% |
| CCOc1ccc(NC(=O)CSc2nc3ccsc3c(=O)n2CCCCCC(=O)O)cc1 | inactive: -7.59% |
| CC(=O)N1CCCc2cc(S(=O)(=O)N3CCCC(C(=O)NCc4ccc(C)cc4)C3)ccc21 (stereo unspecified) | inactive: -21.5% |
| CC(C)CCNC(=O)C(Cc1ccccc1)NS(=O)(=O)c1ccc2c(c1)c(=O)n(C)c(=O)n2C (stereo unspecified) | inactive: 0.346% |
| Cc1ccc(S(=O)(=O)C(CNC(=O)COc2ccccc2)c2ccco2)cc1 (stereo unspecified) | inactive: -5.96% |

| SMILES | activity change, negative = cytotoxicity |
| --- | --- |
| CCCOc1ccc(-c2cc(C(F)(F)F)c(C#N)c(SCCC(=O)O)n2)cc1 | inactive: -23.7% |
| CCCN(CCC)C(=O)Cn1c(=O)n(CCCCCC(=O)NCc2ccccc2Cl)c(=O)c2sccc21 | inactive: 6.27% |
| Cc1ccc(CNC(=O)CSc2nc3n[nH]c(C)c3c(=N)n2-c2ccccc2Cl)cc1 | inactive: 19.9% |
| O=C(Nc1ccccc1C(=O)OCc1cc(=O)n2nc(C3CC3)sc2n1)c1cccc(F)c1 | inactive: -0.946% |
| CS(=O)(=O)N1CCc2cc(C(=O)Nc3ccc(C(F)(F)F)cc3)ccc21 | inactive: 4.61% |
| Cc1cc(C)n(-c2nc3cc(Cl)ccc3nc2N2CCN(c3ccccc3F)CC2)n1 | inactive: 2.19% |
| CCOc1ccccc1CNCCSc1nnnn1C | inactive: 13.3% |
| CCOCCn1ccc2c(OCC(=O)Nc3cccc(F)c3)cccc2c1=O | inactive: -25.4% |
| CCOc1cc(-c2ccc(OC(=O)c3ccccc3)c(OC)c2)cc(=O)c2c(C)oc(C)c12 | inactive: 0.919% |
| COc1cccc(Cc2nc3ccccc3nc2SCC(=O)Nc2cc(OC)ccc2OC)c1 | inactive: 5.4% |
| COc1ccc(OC)c2sc(N3CCN(C(=O)C4COc5ccccc5O4)CC3)nc12 (stereo unspecified) | inactive: 0.823% |
| Cc1ccc(C2c3c(oc4ccccc4c3=O)C(=O)N2c2nnc(C)s2)cc1 (stereo unspecified) | inactive: 3.83% |
| CCN(CCCNC(=O)CN1N=C(c2ccccc2)CCC1=O)c1ccccc1 | inactive: -2.14% |
| O=c1c2sc3ccccc3c2n(Cc2ccccc2)c(=O)n1CCc1ccccc1 | inactive: 16.4% |
| COc1ccc(C)cc1Nc1ncnc2c1c(-c1ccccc1)cn2-c1ccc(C)cc1 | inactive: 1.41% |
| CC(C)c1ccc(NC(=O)CCS(=O)(=O)c2ccc3c(c2)CC(=O)N3C)cc1 | inactive: -14% |
| O=S(=O)(c1ccccc1)c1nnn2c1nc(NCc1ccccc1)c1cc(Cl)ccc12 | inactive: -19.3% |
| O=C(Nc1cccc(F)c1)c1oc2ccccc2c1NC(=O)C12CC3CC(CC(C3)C1)C2 | inactive: 6.92% |
| Cc1nc2nc(C)c(CCC(=O)NCc3ccccc3)c(C)n2n1 | inactive: -9.23% |
| Cc1ccc2occ(CC(=O)Nc3ccc(S(=O)(=O)N4CCC(C)CC4)cc3)c2c1 | inactive: -23.6% |
| O=C(NCc1ccco1)c1ccc(Cn2c(SCc3ccccc3F)nc3cccnc32)cc1 | inactive: -26.8% |
| CCN1CCN(c2ncnc3c2cnn3-c2cccc(C)c2)CC1 | inactive: 0.836% |
| O=C(CSc1ncccc1C(=O)Oc1ccccc1Cl)Nc1ccccc1Cl | inactive: 0.87% |
| CN(C)c1ccc(CNC(=O)C2COc3ccccc3C2)cc1 (stereo unspecified) | inactive: 0.873% |

| SMILES | activity change, negative = cytotoxicity |
| --- | --- |
| O=C(NCc1ccc(Cl)cc1)NC1COc2ccccc2C1 (stereo unspecified) | inactive: 5.07% |
| CC1CCN(S(=O)(=O)c2ccc3c(c2)N(CC(=O)NCC(C)c2ccccc2)C(=O)CO3)CC1 (stereo unspecified) | inactive: 3.56% |
| Cc1c(C(=O)OCc2ccccc2)[nH]c2c1C(=O)CC(c1ccc(Cl)cc1)C2 (stereo unspecified) | inactive: -26.7% |
| CCOc1ccc(C(=O)c2oc3ccccc3c2NC(=O)c2cc(-c3ccc(C)cc3)on2)cc1 | inactive: 2.35% |
| Cc1ccc(-c2cc(C(F)(F)F)n3ncc(-c4ccccc4)c3n2)cc1 | inactive: 6.81% |
| O=C(NC1CCCCC1)c1ccc2c(c1)N(Cc1ccccc1Cl)C(=O)c1ccccc1S2 | inactive: 5.45% |
| COc1ccc(CCNC(=O)Cn2cc(S(=O)(=O)Cc3ccc(F)cc3)c3ccccc32)cc1OC | inactive: -12.9% |
| CC(C)CN(CC(C)C)CC(O)Cn1cc(/C=C/C(=O)c2ccccc2)c2ccccc21 (stereo unspecified) | inactive: -4.57% |
| O=C(COc1ccc(F)cc1)OCc1cc(=O)n2nc(-c3cccs3)sc2n1 | inactive: 2.59% |
| COc1cccc(CNS(=O)(=O)c2c(C(=O)N3CCC(C)CC3)c(C)n(C)c2C)c1 | inactive: -0.526% |
| CCOc1ccc(S(=O)(=O)Nc2ccc3oc4c(c3c2)CC(C)CC4)cc1 (stereo unspecified) | inactive: -26.4% |
| COc1ccccc1CNC(=O)COCc1cc(-c2ccc3c(c2)OCO3)on1 | inactive: -1.6% |
| COc1ccc(C)c2sc(NC(=O)c3ccc(S(=O)(=O)N4CCCC4)cc3)nc12 | inactive: -3.09% |
| CCOc1ccccc1CNC(=O)Cn1nc(N2CCN(c3ccccc3)CC2)ccc1=O | inactive: -13.3% |
| COc1ccc(C(=O)NCc2ccc3c(c2)CCN3C(=O)c2ccc(F)cc2)cc1 | inactive: 11.5% |
| COc1cc(NS(=O)(=O)c2c(C)nc3sc(C)c(C)n3c2=O)cc(OC)c1 | inactive: 11.4% |
| Cc1cccc(N(C)S(=O)(=O)c2cc3[nH]c(=O)c(=O)[nH]c3cc2C)c1 | inactive: 8.7% |
| CCCCC(=O)Nc1nnc(S(=O)(=O)N(C)Cc2ccccc2)s1 | inactive: 4.34% |
| CCSc1nnc2c(n1)OC(c1ccc(OC)c(OC)c1)N(C(C)=O)c1ccccc1-2 (stereo unspecified) | inactive: -2.04% |
| CN(C)c1ccc(CNC(=O)C2CCN(Cc3cc4ccccc4n3Cc3ccccc3)CC2)cc1 | inactive: -14.9% |
| Cc1ccc(-c2noc(CSc3nnc(C)n3-c3ccc(C)c(C)c3)n2)cc1 | inactive: -0.61% |
| COc1ccc(Cl)cc1NC(=O)CSc1ccc2nnc(CCNS(=O)(=O)c3ccccc3)n2n1 | inactive: 17.9% |
| O=c1cc(-c2ccccc2)n2c(SCc3ccccc3Cl)nnc2[nH]1 | inactive: 10.4% |
| COc1ccc(-n2c(=O)c3c4c(sc3n(C)c2=O)CN(C(C)=O)CC4)cc1 | inactive: -8.79% |
